According to paper PMC4336329 (PLoS ONE, 2015):
The campaign covered roughly 310,000 compounds. About 14,000 (4.5%) showed an effect of 50% or more. The effect is printed as a negative number. The list shows a part of the results.

These molecules were tested against human ether-à-go-go-related gene (hERG) potassium channel (human, UniProt Q12809) (assay: primary screen, population patch clamp on CHO cells stably expressing hERG).
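Further: peak tail current of the secondary pulse compared with the same well before compound.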

human ether-à-go-go-related gene (hERG) potassium channel, sequence (Q12809 whole entry, looked up): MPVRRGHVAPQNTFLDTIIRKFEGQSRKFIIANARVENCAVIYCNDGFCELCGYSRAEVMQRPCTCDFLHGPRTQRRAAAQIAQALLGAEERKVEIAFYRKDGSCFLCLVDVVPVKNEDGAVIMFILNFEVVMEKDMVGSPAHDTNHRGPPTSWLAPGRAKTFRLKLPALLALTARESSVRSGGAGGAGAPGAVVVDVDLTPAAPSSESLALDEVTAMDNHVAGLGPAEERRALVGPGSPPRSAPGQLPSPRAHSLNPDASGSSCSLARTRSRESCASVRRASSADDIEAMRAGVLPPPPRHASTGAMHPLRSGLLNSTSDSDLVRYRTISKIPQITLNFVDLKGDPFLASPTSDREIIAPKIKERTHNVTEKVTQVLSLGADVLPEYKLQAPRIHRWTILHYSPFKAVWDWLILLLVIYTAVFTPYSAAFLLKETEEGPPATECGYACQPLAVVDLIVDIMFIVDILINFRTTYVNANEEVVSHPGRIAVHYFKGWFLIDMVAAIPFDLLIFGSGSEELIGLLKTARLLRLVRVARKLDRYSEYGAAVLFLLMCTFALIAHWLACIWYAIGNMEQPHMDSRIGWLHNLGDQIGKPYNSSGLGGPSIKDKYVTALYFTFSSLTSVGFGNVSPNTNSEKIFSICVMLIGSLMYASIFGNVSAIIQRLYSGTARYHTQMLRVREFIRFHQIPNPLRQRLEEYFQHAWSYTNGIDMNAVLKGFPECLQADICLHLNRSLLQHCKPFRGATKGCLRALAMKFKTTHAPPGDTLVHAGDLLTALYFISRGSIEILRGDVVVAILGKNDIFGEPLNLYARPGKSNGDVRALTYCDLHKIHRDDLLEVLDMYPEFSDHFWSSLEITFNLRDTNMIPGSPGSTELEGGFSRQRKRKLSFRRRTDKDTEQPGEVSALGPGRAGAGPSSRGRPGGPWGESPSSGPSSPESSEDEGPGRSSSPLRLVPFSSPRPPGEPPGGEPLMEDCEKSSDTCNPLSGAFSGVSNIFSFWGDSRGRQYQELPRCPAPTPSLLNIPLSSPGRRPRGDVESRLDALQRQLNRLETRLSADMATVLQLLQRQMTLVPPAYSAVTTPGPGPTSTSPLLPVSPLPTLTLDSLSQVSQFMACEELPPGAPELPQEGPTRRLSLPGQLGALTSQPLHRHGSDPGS

| SMILES | hERG current change (%, negative = inhibition) at 10uM [%] |
| --- | --- |
| O=C(Nc1nnc(SCc2ccc(F)cc2)s1)C1CC(=O)N(c2ccc3c(c2)OCCO3)C1 (stereo not drawn) | 14.5 |
| COc1ccccc1N1CCN(C2CCN(C(=O)COc3cccc(C)c3)CC2)CC1.O=C(O)C(=O)O | -67.8 |
| CCOc1ccc(NC(=O)CN2CCN(CC(=O)Nc3ccc(Cl)c(C(F)(F)F)c3)CC2)cc1 | -57 |
| CCNc1nc(SC(C)C(=O)Nc2ccccc2)nc(N2CCOCC2)n1 (stereo not drawn) | -1.81 |
| Cc1ccc(CNC(=O)CCc2nc(-c3cccs3)no2)cc1 | -20.7 |
| COc1ccc(-c2nn(-c3ccccc3)cc2/C=N/O)cc1OC | -4.66 |
| O=C(CSc1nnc(SCc2ccc(Cl)cc2)s1)N/N=C/c1c[nH]c2ccccc12 | 2.15 |
| Cc1ccc(CNC(=O)c2ccc(OCC3CCCO3)cc2)cc1 (stereo not drawn) | 6.09 |
| O=C(c1ccc(Cl)cc1)C1CCN(C(=O)c2ccccc2)CC1 | -34.3 |
| Cc1ccc(NC(=O)c2cc(=O)n(Cc3ccccc3)c(=O)[nH]2)cc1C | 35.8 |
| Br.Cc1cc(C)cc(OCC(=O)NN2Cc3ccccc3C2=N)c1 | -11.6 |
| Cc1ccc(S(=O)(=O)N2CCC(C(=O)NC3CC(C)(C)NC(C)(C)C3)CC2)cc1 | 14.1 |
| NC(=O)CC(NC(=O)Cc1ccc(Br)cc1)c1ccc(NCc2ccc(F)c(F)c2)c([N+](=O)[O-])c1 (stereo not drawn) | -1.71 |
| O=C(NCc1ccco1)c1csc2c1CCCC2 | 3.81 |
| C=C(C)Cn1c(SCC(=O)O)nnc1-c1ccc(C(C)(C)C)cc1 | 19.4 |
| CC(C)n1cc(CN2CCC(n3nccc3NC(=O)Cc3ccccc3)CC2)cn1 | 7.82 |
| O=C(NCCN1C(=O)S/C(=C\c2cccnc2)C1=O)C1CC(=O)N(Cc2ccco2)C1 (stereo not drawn) | 14.5 |
| CCC(C)(C)c1ccc(OCC(=O)Nc2ccncc2)cc1 | -16 |
| CCN1CNC(=S)N(Cc2ccccc2)C1 | -4.02 |
| CC(C)(C)OC(=O)N1CCC(c2c(C(=O)N3CCN(C(=O)c4ccco4)CC3)cnn2-c2ccc(F)cc2)CC1 | -14.8 |
| O=C(NNC(=O)c1ccc(Cl)cc1Cl)c1cccs1 | 25.1 |
| Cc1ccc(NC(=O)c2ccc(Cl)c(N3C(=O)C=CC3=O)c2)cc1 | -0.826 |

| SMILES | hERG current change (%, negative = inhibition) at 10uM [%] |
| --- | --- |
| CC(=O)Nc1cc(O)cc(O)c1 | 4.9 |
| Cc1ccc(S(=O)(=O)N2CCCOC2CNC(=O)C(=O)NCCCn2ccnc2)cc1 (stereo not drawn) | 9.65 |
| CC1=NN(c2ccccc2)C(=O)C1C(=O)c1ccc([N+](=O)[O-])cc1 (stereo not drawn) | 3.92 |
| COc1ccc(C(CC(=O)c2ccccc2)S(=O)(=O)c2ccccc2)cc1 (stereo not drawn) | 6.69 |
| CCn1c(SCC(=O)Nc2ccc(NC(C)=O)cc2)nc2c1c(=O)n(C)c(=O)n2C | 24.7 |
| COc1ccc(C(=O)NCc2ccc3c(c2)cc(C)n3C)cc1OC | -4.32 |
| Nc1c(Br)cc([N+](=O)[O-])cc1[N+](=O)[O-] | 10.8 |
| O=C(NN1C(=O)NC2(CCCCC2)C1=O)c1cc(F)cc(F)c1 | -2.73 |
| COc1cc(CNC(C)(C)CO)ccc1OCC(=O)Nc1ccc(Br)cc1 | -38.3 |
| Cn1c(Sc2ccc(Br)cc2)c(C=O)c2ccccc21 | -3.98 |
| CC(C(=O)NCCS(=O)(=O)c1ccc(Cl)cc1)S(=O)(=O)c1ccc(Cl)cc1 (stereo not drawn) | -27.8 |
| CCOc1ccc(N(CC(=O)Nc2ccc(OC)cc2)S(=O)(=O)c2c(C)[nH]c(=O)[nH]c2=O)cc1 | 1.99 |
| Cc1coc2c1c(C)cc1oc(=O)c(CC(=O)NCCCCCC(=O)O)c(C)c12 | 22.9 |
| C=CCOc1ccc(/C=C2\SC(=S)N(NS(=O)(=O)c3ccccc3)C2=O)cc1 | 4.47 |
| C=CCn1c(SCC(=O)Nc2sccc2C(N)=O)nc2sc(C)c(C)c2c1=O | 13 |
| Cc1ccc(NC(=O)Cn2nc(-c3ccccc3)nc2-c2ccccc2)c(C)c1 | 20 |
| CCOC(=O)C1CCCN(C(=O)CN2C(=O)c3ccccc3C2=O)C1 (stereo not drawn) | -0.575 |
| O=C(NN=C1CCCCCC1)c1ccncc1 | 11.3 |
| c1ccc(-c2nc(C3CCCCC3)c3sccc3n2)cc1 | 9.26 |
| CCn1c(SCc2c(Cl)cccc2Cl)nnc1-c1nn(-c2ccccc2)ccc1=O | -66.1 |
| CCC(=O)N1CCc2cc(S(=O)(=O)NC(C(=O)NCc3ccc(F)cc3)C(C)C)ccc21 (stereo not drawn) | 9.46 |
| O=C1N=C(c2ccccc2)S/C1=C\c1cccs1 | 5.19 |

| SMILES | hERG current change (%, negative = inhibition) at 10uM [%] |
| --- | --- |
| Cc1cccc(-c2cc(C(=O)Nc3ccc4c(c3)OCCO4)c3ccccc3n2)c1 | -2.65 |
| O=C1CC(c2ccccc2)CC(=O)C1Sc1ccc(Cl)cc1 (stereo not drawn) | -2.22 |
| CCC(=O)Nc1cccc(C(=O)OCC(=O)c2ccccc2Cl)c1 | -8.8 |
| CCOc1ccc(C(=O)NC2CCN(C(=S)Nc3ccccc3C)CC2)cc1 | 36.2 |
| O=C(O)c1ccccc1-c1ccccc1C(=O)NCCc1ccccc1 | 8.04 |
| CCC1CCCCN1S(=O)(=O)c1ccc2[nH]c(=O)ccc2c1 (stereo not drawn) | -60.1 |
| Cc1ccc(C#N)c(SCc2cc3c(cc2Cl)OCO3)n1 | 16.5 |
| Cc1nnc2c3ccccc3c(-c3ccc(O)cc3)nn12 | 1.7 |
| CCCCC(=O)Nc1ccc2c(c1)OCCO2 | 10.4 |
| C=CCSc1nnc2c(n1)OC(c1c(C)[nH]n(-c3ccccc3)c1=O)Nc1ccccc1-2 (stereo not drawn) | -33.6 |
| Cn1nnnc1SCC(=O)Nc1ccc2c(c1)OCCO2 | 20.8 |
| CCOC(=O)N1CCC(NC(=O)c2cc(C(=O)NC3CCN(Cc4ccccc4)CC3)ccc2CO)CC1 | 7.41 |
| O=C(c1ccccc1)N1CCCCC(S(=O)(=O)c2ccccc2)C1=O (stereo not drawn) | -9.48 |
| NC(=O)CSc1nc2cc3c(cc2c(=O)n1CCCC(=O)NCc1ccc2c(c1)OCO2)OCO3 | -31.6 |
| CC1CCCN(CC(=O)Nc2ccc(S(=O)(=O)N3CCCC3)cc2)C1 (stereo not drawn) | 1.82 |
| COc1ccc(C(=O)Nc2ccc(Cl)cc2C(=O)N2CCOCC2)cc1 | 4.85 |
| CCOC(=O)Cc1csc(NC(NC(=O)CC)(C(F)(F)F)C(F)(F)F)n1 | 7.05 |
| O=C1COc2cc(ccc2[N+](=O)[O-])Oc2ccc(cc2Cl)C(=O)CCCCO1 | 10.8 |
| CCN1CCC2(CCNC2)C1.Cl (stereo not drawn) | -10.9 |
| CCn1c(SCC(=O)Nc2ccc(OC)cc2)nc2nc3c(cc2c1=O)CCCC3 | -62.6 |
| COc1cc2c(cc1OC)C(c1ccccc1)CC2=O (stereo not drawn) | 7.03 |
| Cc1ccc(N(C(=O)CCC(=O)Nc2cc(C)on2)C(C(=O)NC2CCCC2)c2ccncc2)cc1 (stereo not drawn) | -3.7 |

| SMILES | hERG current change (%, negative = inhibition) at 10uM [%] |
| --- | --- |
| Nc1nnc(SCc2ccccc2)n1-c1ccccc1 | -19.9 |
| O=C(O)CCn1c(-c2ccccn2)nc2ccccc21 | 13.9 |
| O=C(Nc1ccc(Cl)cc1)C1C2C=CC3(O2)C1C(=O)N(CCN1CCCCC1)C3C(=O)NC1CCCCC1 (stereo not drawn) | -44.1 |
| CN(C)c1ccc(CN(C(=O)COc2ccc(Br)cc2)C2CCS(=O)(=O)C2)cc1 (stereo not drawn) | -17.7 |
| O=C(COC(=O)CSc1ccc([N+](=O)[O-])cc1)NCc1ccco1 | 12.5 |
| COc1ccc(-n2cc(CN(C)Cc3n[nH]c(=O)[nH]3)c(-c3cccc(F)c3)n2)cc1 | -15.4 |
| CCCCN(CC)CCNS(=O)(=O)c1ccc2c(c1)oc(=O)n2C | -3.03 |
| O=C(O)CC(=O)Nc1cc(Cl)ccc1O | 4.07 |
| Cc1nn(S(=O)(=O)N2CCCCC2)c(C)c1Br | 6.5 |
| OCC[C@@H]1C[C@H](O)[C@@H](O)[C@@]2(CCc3ccccc3O2)O1 | -3.24 |
| Cc1occc1C(=O)Nc1ccc2c(c1)OCCO2 | -14.2 |
| CSc1nsc(SCC(=O)Nc2ccccc2C(=O)O)n1 | 19.5 |
| CC(C)(C)C(=O)C1=C(O)C(=O)N(Cc2ccccc2)C1c1ccccc1Cl (stereo not drawn) | 14.1 |
| C/C(=N\NC=O)c1ccncc1 | 3.94 |
| CC(=O)N/C(=N/c1nc(C)cc(C)n1)Nc1ccc(C)cc1C | -10.6 |
| CC(C)(C)c1ccc(C(=O)CSc2ncn[nH]2)cc1 | -0.683 |
| CC1(C)NC(=O)N(CC(=O)N2CCCC(C(F)(F)F)C2)C1=O (stereo not drawn) | 10.4 |
| Cc1ccc(C)c(S(=O)(=O)c2c[nH]c(=S)[nH]c2=O)c1 | 13.4 |
| Cc1ccc(NC(=O)C2(NC(=O)c3cccc(N4C(=O)CSC4c4ccccc4)c3)CCCCC2)cc1 (stereo not drawn) | 2.72 |
| COc1ccc(NC(=S)NC(=O)CC(C)C)c(OC)c1 | 20.9 |
| CCOC(=O)c1c(C)c(C(=O)N2CCC3(CC2)OCCO3)c(C)n1CC | 12.7 |
